Assay results published in article PMC8363609.
Results are given in words; binding and its absence hold for the method and conditions named. In cells and extracts the contact can be indirect. Some entries that bind do so weakly or less than the wild type. Tags and fused reporters may be left off the sequences shown.

Assays:
[1] = target: T1, GFP-SUN5 SUN domain (193–373aa) (UniProt Q9DA32); experiment: co-IP; HEK293T cells co-transfected with two tagged plasmids, collected after 24 h; lysed in ELB buffer (50 mM HEPES, 250 mM NaCl, 0.1% NP-40); IP with anti-GFP, anti-FLAG or anti-MYC antibody and Dynabeads-protein-G at 4 °C; immunoblot for the tags
T1 sequence: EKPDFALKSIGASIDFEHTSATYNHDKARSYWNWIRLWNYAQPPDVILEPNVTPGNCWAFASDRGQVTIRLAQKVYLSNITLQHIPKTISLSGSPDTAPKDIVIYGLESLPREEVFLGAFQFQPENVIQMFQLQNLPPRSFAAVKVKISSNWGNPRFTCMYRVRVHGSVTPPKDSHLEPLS

GFP-tagged PMFBP1 = target: T2, GFP-tagged PMFBP1 (UniProt Q9WVQ0); experiment: as above
T2 sequence: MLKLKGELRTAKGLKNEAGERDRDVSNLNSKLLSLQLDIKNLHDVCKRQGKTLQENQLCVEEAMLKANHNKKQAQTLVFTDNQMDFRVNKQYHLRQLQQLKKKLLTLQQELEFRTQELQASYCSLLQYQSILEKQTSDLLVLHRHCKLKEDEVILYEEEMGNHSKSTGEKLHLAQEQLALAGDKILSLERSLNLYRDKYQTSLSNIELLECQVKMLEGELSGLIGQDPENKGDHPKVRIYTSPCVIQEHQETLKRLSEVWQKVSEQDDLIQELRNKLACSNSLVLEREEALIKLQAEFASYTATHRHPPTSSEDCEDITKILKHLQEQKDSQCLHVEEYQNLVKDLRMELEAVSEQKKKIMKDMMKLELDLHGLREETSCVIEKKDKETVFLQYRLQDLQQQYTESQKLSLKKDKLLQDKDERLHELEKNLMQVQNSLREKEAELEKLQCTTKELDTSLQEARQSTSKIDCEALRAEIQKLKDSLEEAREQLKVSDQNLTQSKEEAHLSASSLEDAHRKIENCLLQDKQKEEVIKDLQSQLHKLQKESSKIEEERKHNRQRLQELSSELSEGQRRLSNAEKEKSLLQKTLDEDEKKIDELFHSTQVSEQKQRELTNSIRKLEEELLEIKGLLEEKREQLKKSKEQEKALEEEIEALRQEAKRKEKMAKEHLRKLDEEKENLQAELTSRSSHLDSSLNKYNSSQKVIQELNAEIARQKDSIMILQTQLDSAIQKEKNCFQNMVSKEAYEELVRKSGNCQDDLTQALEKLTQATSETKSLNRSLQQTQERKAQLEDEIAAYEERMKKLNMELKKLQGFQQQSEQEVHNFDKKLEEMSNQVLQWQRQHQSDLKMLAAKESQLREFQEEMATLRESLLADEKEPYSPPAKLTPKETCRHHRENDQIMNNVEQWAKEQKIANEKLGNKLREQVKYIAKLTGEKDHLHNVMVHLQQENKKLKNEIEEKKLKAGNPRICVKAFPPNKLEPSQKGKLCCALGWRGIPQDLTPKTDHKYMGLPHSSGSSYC

binding [1]: binds
binding (GFP-tagged PMFBP1): binds
B1: MYC-tagged CENTLEIN (protein, UniProt A2AM05 1-1397)
chain: MAARSPSSSPPPPPVRRSSRRSLRVGRGAEVHAVRSEASGLAGAAREVVADKSDLLWRGEEGSGGRRGSGRAGAAVAPVASAPAGSWWPEGLSSEEAKATRSQLLEEELSSLKEELALCQADKEFVWSLWRRLQATNPDLTQTVSLVVEREKQKSEAKDRKVLEILQVKDSKIQELEQTESVLKQELHDLVKLKTLVDEENAFLRKELCDLQKKFKDKSQEVKDAKECVQSKEEQNRLVIKNLEEENERLRTRCTDLLNDLEKLRNQEAHWRKEKHSVDTRVKVLEENLIEAKKEIESAQTKYNVVSQQLNNKQAELLQKDMDITLIRKELQELQNVYKQNSAHTAQQADLIQQLQALNMDTQKVLRNQEDVHTAESMSYQKLYNELHMCFETTKSNEVMLRQSVVNLQGQLFQKEQENVKLKEKLEESQGTAPSLSPHDSDSSHSGKAPLSTLETLMISQKSEIEYLQKKLKVANEKLMANRSCDQDFSEKGTEGKHKEPPVKRSRSLSPKSSFMGSEELRKLKKAERKIENLEKTLQLKSQENDELRDAHEKRKERLQMLHTNYRAVKEQLKQWEEDSGMAESRQMKRAEPHQLRQEDSDAVWNELAYFKRENQELMVQKMTLQDELDELKMHMSIDKTTIQELNRCMAEKREEQLFRQHEDAEVKKSTPEKNEKAISEETLQKVIELENRLKSFEKNSRKLKEESKRLKKENDFLKSHLKHYQEDSEAREKELEQLLRVSKDVEHDKSELQTKITALETEVTTLRRQVTEAKALRGKDEEVVCPEERAHRPTDKAKSEMATTDVRARRCDCKTATTKVKFKAAKRKCSVGRHHTVLNHSIKVMSHVENLSKDGWEDVSEGSSDSETQTFQNLGTIIVETSQNISPIEDGRNQKEIDQTEGSCAQQRAMQTYSCEDIKAPQSISHNKNTKKMTFQKKSGSLQKSLHSALPARVNREKCKNLPAQKSSSSTISLRERIVSLQQQNSLLQNARRAAEASAKEYKEANEKLLHQQQVSDHRFQTSRQTIKKLTLDLAELRKEKEDLLKKVESSSDIMSLAEEVSRIMAPQIKVTTLGPSRSMDLEMKQLQCKLKNATNELTKQSSNVKSLRMELLAKDDHIKEMHERTSRMERDITMKRHLIEDLKFRQKVNSESNESFNEMLETLEKKVKSLTEECSNKKVSVDSLKQRLNVAVKEKSQYEQMYQKTKEELEKKDLKMSVLISKLNDTETAMAQIETAASEQLQGLALQSEQVLEGAQKKLLSANEKIEEFTVFVKALVNELQSDVHGTRHQIRELKKMQKSRHACKTSTHKAQTLAASILNISRSDLEEILDTEDELEIEKTKIDIENDKEWMLYIQKLLEGQLPFASYLLEAVLEKIKENKKLTEGYFTVMKDTK
